Laboratory results reported in patent US20100152434A1, “Protein Kinase-binding Nucleosides and Associated Methods” (priority 2007, published 2010).

Molecular target: KIT(D816V) (Homo sapiens, UniProt P10721, D816V)
Test: Ambit kinase phage display ATP-binding-site ligand binding assay
Conditions: read-out: percent inhibition of binding
Excerpt: This assay is based on ligand-affinity/protein kinase phage display and was employed essentially as described by Fabian et. al [Nature Biotech. 2005, 23, 329], which is incorporated herein by reference. In this assay, protein kinases are cloned into T7 bacteriophage which express the kinase fusion proteins on the phage capsid. T7 kinase-tagged phage are then screened for binding to ATP-binding-site ligands that have been immobilized on a solid support. Phage are screened for binding to the anchored ligands both in the presence of test compound and in its absence (control). Elution of the bound phage by free ligand (ATP-binding site ligand that is not immobilized on a solid support) followed by determination of the phage titre provides a reliable measure of the ability of test compounds to block binding of target kinases to resin-bound ATP-binding-site ligands. […]
Compound 10 (FIG. 4) was dissolved in DMSO to make a 1,000-X stock solution which was diluted to 10 μM in aqueous assay buffer system. […] The phage titre of the eluates was measured by quantitative PCR or by plaque assays. […]

Compound: CCOC(=O)C[C@@H]1C(O[Si](C)(C)C(C)(C)C)[C@H](n2cnc3c(NC(=O)Nc4ccccc4)ncnc32)O[C@@H]1CNC(=O)NC (stereo partly shown) [Compound 10]
- inhibition at 10 µM: 20 to 29%
